Laboratory results reported in PubChem BioAssay (NCATS).
This is one part of the list. The main result of the screen is listed elsewhere. These columns were measured beside it and carry no call. Most of these compounds were active or inconclusive in the main read-out, so they are no random draw. The note in brackets gives the kind of curve behind each potency; many fits are weak.

Test: qHTS Assay for Lipid Storage Modulators (AID 1519)
Conditions: Drosophila S3 cells, BODIPY lipid droplet/cell ratio, laser cytometry, cells loaded with oleic acid
In short: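 Cells seeded at 5,000 per well were treated with compounds over a concentration series and loaded with oleic acid (400 uM, as added). Lipid droplet fluorescence (488 nm excitation, 500-530 nm channel) was read by laser-scanning cytometry and normalized to 20 uM Triacsin C.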

[1] = measured here: cell count channel max response
[2] = measured here: cell number channel AC50
[3] = measured here: lipid (BODIPY) channel AC50
[4] = measured here: lipid channel max response
Tags describe the fitted curve by direction and shape.

Structure (SMILES) | max response [1] [%] | AC50 [2] | AC50 [3] | max response [4] [%]
Nc1nc2c(ncn2C2CC(O)C(CO)O2)c(=O)[nH]1 (configuration not stated) | -34.4 | 25.1 µM [falling, single point] | 31.6 µM [falling, single point] | -42.8
CC(=O)Oc1cc(OC(C)=O)c2c(=O)cc(-c3ccc(OC(C)=O)c(OC(C)=O)c3)oc2c1 | 49 | 22.4 µM [rising, partial curve, poor fit] | 20 µM [rising, full curve, poor fit] | 28.2
O=S(=O)(c1ccccc1)N1CCC2(CCCN(Cc3ccncc3)C2)CC1 | 44.9 | 2 µM [rising, full curve] | 2.24 µM [rising, full curve] | 51.6
O=c1c(-c2ccc(Cl)cc2)nc2cnc(Nc3ccccc3)nc2n1C[C@H]1CCCO1 | -25.5 | 0.708 µM [falling, full curve] | 1.41 µM [falling, full curve] | -65.1
c1ccc2sc(N3CCN(Cc4ccc5c(c4)OCO5)CC3)nc2c1 | 76 | 12.6 µM [rising, full curve] | 14.1 µM [rising, full curve, poor fit] | 104
COc1ccc(NC(=O)N2CC3(CCN(C(=O)c4cccc(F)c4)CC3)C2)cc1 | 16 | 0.0891 µM [rising, full curve, poor fit] | 0.0398 µM [rising, full curve, poor fit] | 24.9
COC1=CC(=O)C=C(OC)C1=O | -66.9 | 28.2 µM [falling, partial curve] | 28.2 µM [falling, partial curve] | -84
CC(=O)Oc1cc(C(C)C)c(OCCN(C)C)cc1C | 51.7 | 39.8 µM [rising, single point] | 39.8 µM [rising, single point] | 47.9
C[C@@]1(C(=O)O)NCCc2cc(O)c(O)cc21 | 39.5 | 6.31 µM [rising, full curve, poor fit] | 11.2 µM [rising, partial curve, poor fit] | 51.6
CCNc1ncc2nc(CCc3ccccc3)c(=O)n(Cc3ccc(F)cc3)c2n1 | 61.2 | 2.82 µM [rising, partial curve, poor fit] | 1 µM [rising, full curve, poor fit] | 30.6
CN1CCN(c2ncnc3ccc(-c4cccc(C#N)c4)cc23)CC1 | 16.9 | 0.891 µM [rising, full curve, poor fit] | 1 µM [rising, full curve, poor fit] | 18.7
Cc1ccc(C(=O)Cn2c3c(sc2=N)CCCC3)cc1 | 99 | 11.2 µM [rising, partial curve] | 15.8 µM [rising, partial curve] | 130
CCNc1ncc2nc(C)c(=O)n(Cc3cccc(OC)c3)c2n1 | 28 | 0.178 µM [rising, full curve, poor fit] | 0.0794 µM [rising, full curve, poor fit] | 27.8
O=C(Nc1ccccc1)N1CCCC2(CCN(C(=O)c3csnn3)CC2)C1 | 11.7 | 1.58 µM [rising, partial curve] | 1 µM [rising, full curve, poor fit] | 23.9
Cn1c(=O)c(-c2cc(F)cc(F)c2)nc2cncnc21 | 32.2 | 4.47 µM [rising, full curve, poor fit] | 3.16 µM [rising, full curve] | 38.5
N=C(N)SCCc1ccc(CCSC(=N)N)cc1 | -63.6 | 25.1 µM [falling, partial curve] | 25.1 µM [falling, partial curve] | -61.6
COc1ccc(CNc2ccnc(-c3ccc(C(=O)N(C)C)cc3)n2)c(OC)c1 | 33.9 | 4.47 µM [rising, full curve, poor fit] | 0.0447 µM [rising, full curve, poor fit] | 36.8
CCNc1ncc2nc(-c3ccc(Cl)cc3)c(=O)n(Cc3cccs3)c2n1 | 24.5 | 0.891 µM [rising, full curve, poor fit] | 0.708 µM [rising, full curve, poor fit] | 23.3
